Experimental data taken from publication PMC4336329 (PLoS ONE, 2015).
About 14,000 (4.5%) of roughly 310,000 compounds showed an effect of 50% or more. The effect is printed as a negative number. The list shows a part of the results.

target: human ether-à-go-go-related gene (hERG) potassium channel (human, UniProt Q12809); assay: primary screen, population patch clamp on CHO cells stably expressing hERG
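Note: peak tail current of the secondary pulse compared with the same well before compound.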

Chain of human ether-à-go-go-related gene (hERG) potassium channel (Q12809 whole entry, looked up): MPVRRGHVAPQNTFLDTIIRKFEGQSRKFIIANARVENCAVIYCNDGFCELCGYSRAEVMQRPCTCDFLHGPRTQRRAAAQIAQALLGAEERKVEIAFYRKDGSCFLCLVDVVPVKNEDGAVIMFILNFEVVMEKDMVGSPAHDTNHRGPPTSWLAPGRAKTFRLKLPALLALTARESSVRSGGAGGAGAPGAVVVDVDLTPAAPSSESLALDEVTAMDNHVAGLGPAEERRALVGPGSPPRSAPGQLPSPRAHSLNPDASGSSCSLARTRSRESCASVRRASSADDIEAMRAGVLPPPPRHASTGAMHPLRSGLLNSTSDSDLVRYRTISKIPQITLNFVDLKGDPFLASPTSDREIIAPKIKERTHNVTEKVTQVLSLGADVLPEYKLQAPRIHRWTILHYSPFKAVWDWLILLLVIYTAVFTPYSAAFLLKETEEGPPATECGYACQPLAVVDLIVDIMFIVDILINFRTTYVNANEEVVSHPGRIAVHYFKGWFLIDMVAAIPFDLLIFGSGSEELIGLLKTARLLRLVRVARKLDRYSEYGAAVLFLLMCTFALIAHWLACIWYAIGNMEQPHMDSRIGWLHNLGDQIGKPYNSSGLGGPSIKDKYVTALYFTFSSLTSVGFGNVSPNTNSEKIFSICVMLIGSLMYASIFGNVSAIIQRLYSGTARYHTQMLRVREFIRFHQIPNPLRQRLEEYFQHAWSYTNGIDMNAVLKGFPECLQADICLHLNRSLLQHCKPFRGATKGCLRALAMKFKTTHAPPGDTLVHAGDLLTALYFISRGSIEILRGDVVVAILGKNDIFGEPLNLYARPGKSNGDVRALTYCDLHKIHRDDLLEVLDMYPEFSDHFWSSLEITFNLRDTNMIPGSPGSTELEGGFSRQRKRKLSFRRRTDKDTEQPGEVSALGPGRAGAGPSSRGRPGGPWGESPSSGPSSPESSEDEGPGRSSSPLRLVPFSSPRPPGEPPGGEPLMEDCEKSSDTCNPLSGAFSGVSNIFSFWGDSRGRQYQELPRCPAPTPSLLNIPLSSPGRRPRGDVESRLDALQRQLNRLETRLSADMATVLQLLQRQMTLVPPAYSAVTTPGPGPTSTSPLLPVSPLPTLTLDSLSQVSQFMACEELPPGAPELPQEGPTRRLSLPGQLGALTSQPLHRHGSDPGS

Structure (SMILES)	hERG current change (%, negative = inhibition) at 10uM [%]
COc1ccc(Cl)cc1NS(=O)(=O)c1ccc2c(c1)NC(=O)CCS2	-14.2
N#CNC(=Nc1cccc(Cl)c1)Oc1ccccc1	26.6
CCc1cccc2c1NC(=O)C2(O)CC(=O)c1cccs1 (stereo not drawn)	24.2
O=C(NCC(=O)N(c1ccc2c(c1)OCO2)C(C(=O)NC1CCCC1)c1ccncc1)c1ccco1 (stereo not drawn)	-7.25
N#C/C(=C\c1ccc(OCc2ccccc2)cc1)C(=O)Nc1nc2c(s1)CCN(Cc1ccccc1)C2	19.4
O=C(CCC1(C(=O)O)CCC(=O)NC1)NCc1ccccc1 (stereo not drawn)	6.58
Cc1ccc(NC(=O)CCNS(=O)(=O)c2cccs2)cc1F	16.8
COc1ccc(N2CCN(C(=O)Cn3cnc4c(cnn4-c4ccccc4)c3=O)CC2)cc1	-14.5
Cc1cc(OC(=O)c2ccccc2F)c([N+](=O)[O-])c(=O)[nH]1	11.5
CC1(C)CC(=O)c2sc(NC(=O)CN3CCCCC3)nc2C1	2
Cc1cc2c(ncn2C(C)C)c(N)c1C	-9.87
O=C(/C=C/c1ccc(Br)cc1)NC(=S)NNC(=O)c1ccco1	7.88
O=C1NC(=O)/C(=C\c2cn(CC(=O)N3CCOCC3)c3ccccc23)S1	11.7
O=C(N1CCOCC1)C12CC3CC(C1)CC(n1cnc(Cl)n1)(C3)C2	-10.2
CCn1cnnc1SCC(=O)c1c(N)n(C2CC2)c(=O)[nH]c1=O	13.4
CCSc1nc2ccccc2n1CCC(=O)O	5.02
COc1cccc(-c2nc(CS(=O)(=O)CC(=O)NCCN3CCOCC3)c(C)o2)c1	5.36
CCOC(=O)c1c(NC(=O)C2Cc3ccccc3C(=O)O2)sc2c1CCCC2 (stereo not drawn)	20.5
O=S(=O)(c1c(Cl)sc(Cl)c1Br)N1CCCC1	-3.87
CCOC(=O)c1cc(C#N)c(C)nc1N(CC)CC	-3.53
COc1ccc(CCCC(=O)Nc2ccc(F)cc2)cc1	3.95
S=c1[nH]nc(COc2ccccc2)n1/N=C/C=C/c1ccco1	3.42
CCOC(=O)C1=C(Cn2cnc3ccccc32)NC(=O)NC1c1ccc(Cl)cc1 (stereo not drawn)	-16

Structure (SMILES)	hERG current change (%, negative = inhibition) at 10uM [%]
O=C(c1ccc(Cl)cc1)c1nnc(-c2ccncc2)o1	13
CN(C)CCNC(=O)c1ccc(Sc2ccc(Br)cc2)c([N+](=O)[O-])c1	-43.9
COc1ccc(CNC(=O)c2ccccc2NC(=O)C2=CSCCO2)c(OC)c1	-21.8
Cc1ccc(-c2cc(C(=O)OC3CCOC3=O)c3ccccc3n2)c(C)c1 (stereo not drawn)	-17.7
Cc1ccc(NC(=S)NNC(=O)c2cn(C)nc2C)cc1	6.59
O=C(c1cccc(C(F)(F)F)c1)N1CCN(S(=O)(=O)c2ccc(Cl)s2)CC1	-30.8
CC(=O)c1c(C)[nH]c(C(=O)OCC(=O)Nc2cc(Cl)ccc2[N+](=O)[O-])c1C	-14.3
COc1ccc(Cc2nc3ccc(C(=O)NCC4COCCO4)cc3o2)cc1 (stereo not drawn)	1.38
COc1ccc(Cl)cc1S(=O)(=O)Nc1noc2ccccc12	10.9
Cc1ccccc1C1c2[nH]c3ccccc3c2C[C@H]2C(=O)N(C3CCN(Cc4ccccc4)CC3)CC(=O)N12 (stereo partly drawn)	-19.7
Cc1ccc(N=Cc2c(O)cc(C)oc2=O)c(C)c1	13.6
O=C(CSc1nc2ccccc2s1)Nc1ccc2c(c1)OCO2	-1.27
COc1ccc(C)cc1NS(=O)(=O)c1cn(C)c(=O)n(C)c1=O	-2.16
C=CCc1c(C)c(C#N)c2nc3ccccc3n2c1N1CCCCC1	10.2
CCCC(=O)Nc1ccc(C(=O)NN=C(C2CC2)C2CC2)cc1	2.1
FC(F)(F)c1cccc(NC(=S)Nc2cccc(NC(=S)Nc3cccc(C(F)(F)F)c3)n2)c1	-4.29
COc1ccc(CCNC(=O)c2cccc(S(=O)(=O)N3CCc4ccccc4C3)c2)cc1	-24.6
CS(=O)(=O)N1CCC(C(=O)N2CCc3ccccc3C2)CC1	-3.19
COc1cc(Oc2ccccc2)nc(N)n1	-9.37
Cc1ccc(S(=O)(=O)Cn2nnnc2C(c2ccccn2)N2CCN(c3ccccc3)CC2)cc1 (stereo not drawn)	-2.76
CC1CCCC(NC(=O)C2CCN(S(=O)(=O)N3CCCCC3)CC2)C1C (stereo not drawn)	7.85
O=C(O)c1cc(-c2c[nH]c3ccccc23)nc2cc3ccccc3cc12	3
COc1ccc(Oc2nc(C)cc(C)c2C#N)cc1	0.0919

Structure (SMILES)	hERG current change (%, negative = inhibition) at 10uM [%]
CSc1nnc([C@H](C)NC(=O)OC(C)(C)C)o1	-1.25
O=C(CN1CCN(S(=O)(=O)c2ccccc2)CC1)Nc1ccccc1Cl	-6.93
CCOC(=O)c1c(NC(=O)CSc2nnc(C)s2)sc2c1CCC(C)C2 (stereo not drawn)	21.5
Cc1ccccc1/C=N/n1c(-c2ccccn2)n[nH]c1=S	14.7
CCOC(=O)C1C(=O)C=C(c2ccc(OC)cc2)CC1c1ccco1 (stereo not drawn)	-19.3
COC(=O)c1ccccc1NS(=O)(=O)c1ccc(NC(C)=O)cc1	1.46
Nc1nonc1-n1nnc(C(=O)N/N=C/c2ccccc2Cl)c1CN1CCOCC1	-3.45
COc1ccc(CC(NC(=O)c2ccccc2)C(=O)NCC(=O)O)cc1 (stereo not drawn)	9.31
CC(C)CCN(N=O)[C@@H](Cc1ccccc1)CN(N=O)[C@@H](Cc1ccccc1)CN(C)N=O.[Na+]	-6.51
COC(=O)c1sc(-c2ccc(Cl)cc2)cc1N	-37.1
C=CCn1c(CCNC(=O)c2ccccc2F)nnc1SCC(=O)Nc1nc2ccccc2s1	-24.3
O=C(c1ccc(-c2ccccc2)c(F)c1)C1CCCN(CCO)C1 (stereo not drawn)	-44.8
C[C@H](NC(=O)c1ccccc1Cl)C(=O)OCc1cn2cc(Cl)ccc2n1	-7.08
CC(NS(=O)(=O)c1ccccc1Cl)C1CC2CCC1C2 (stereo not drawn)	6.73
COc1ccc(C(=O)n2nc(C)cc2C)cc1Br	-0.154
O=C(c1cc2c(cc1Br)OCCCO2)N1CCCCC1	11
O=C(O)CCCCCn1c(SCc2cc(=O)n3cc(Cl)ccc3n2)nc2ccsc2c1=O	-11.7
Cc1ccc(S(=O)(=O)NC(CC(C)C)C(=O)N2CC(C)OC(C)C2)cc1 (stereo not drawn)	-24.4
O=C(CC(c1ccccc1)C1CCCCC1=O)c1ccco1 (stereo not drawn)	-1.73
Cc1ccc(NC(=O)CCS(=O)(=O)c2ccc(Br)s2)cc1	-15.4
CCOc1ccc(N2C(=O)CC(Sc3ncccn3)C2=O)cc1 (stereo not drawn)	8.27
Cc1cc(NC(=O)COc2ccccc2C)no1	9.34
O=C1CC(c2ccccc2)CC(O)=C1C=Nc1ccccc1 (stereo not drawn)	5.66

Structure (SMILES)	hERG current change (%, negative = inhibition) at 10uM [%]
Cc1ccc(S(C)(=O)=O)cc1C(=O)Nc1ccc(S(=O)(=O)Nc2nccs2)cc1	3.07
CCn1cc(C(=O)N[C@@H](C)C(=O)NCCCO)c(=O)c2cc3c(cc21)OCO3	23.8
CC1CCCCN1C(=O)C1CCCCN1S(=O)(=O)c1cccc([N+](=O)[O-])c1 (stereo not drawn)	-7.99
CC1CCC(NC(=O)CCS(=O)(=O)c2ccc3c(c2)CCN3C(=O)C2CC2)CC1 (stereo not drawn)	13
COCCN(C(=O)COC(=O)CCc1c[nH]c2ccccc12)c1c(N)n(Cc2ccccc2)c(=O)[nH]c1=O	-17.9
O=C(Cc1ccc(Cl)cc1)Nc1ccccc1C(=O)Nc1ccc(C(=O)O)cc1	17.9
C=CCOc1ccc2ccccc2c1CNn1c(C)n[nH]c1=S	14.4
NCCCCCc1cn(CC(=O)NCCCCCCCCCCC(=O)N2CCNCC2)nn1	-30.6
CC(=O)N1CCN(C(=O)c2cc3ccccc3o2)CC1	20.1
Cc1ccc(S(=O)(=O)CCC(=O)NCc2ccco2)cc1	-4.83
O=C(Nc1ccc(Cl)cc1)N1N=CCC1c1ccccc1 (stereo not drawn)	-1.59
Cc1ccc(/C=N/NC(=O)c2ccc(-n3cccc3)cc2)o1	3.69
O=C(NCc1cnn(-c2ccccc2)c1)C1CCC(=O)N(C2CC2)C1 (stereo not drawn)	15.6
Cc1cnc(C(=O)OCC(=O)NCc2ccccc2)cn1	23.6
COc1cc(C=O)c(Br)cc1OCC(=O)NCc1ccccc1	10.5
CCC1CC(C(=O)Nc2ccccc2)C(=O)O1 (stereo not drawn)	16.8
O=c1[nH]cnc2c1oc1ccccc12	10
CC(C)C(OC(=O)c1nsc(Cl)c1Cl)C(=O)NCc1ccccc1 (stereo not drawn)	-1.02
Cl.Fc1ccccc1CNC1CN2CCC1CC2 (stereo not drawn)	22
C=CCn1c(N)cc(=O)nc1SCC(=O)N(c1ccccc1)c1ccccc1	15.3
COc1ccc2c3c([nH]c2c1)C1CC2C(CC(O)C(OC)C2CO)CN1CC3 (stereo not drawn)	-48.7
